# In paper PMC4336329 (PLoS ONE, 2015):
# Screen size: about 310,000 compounds; about 2,200 (0.71%) showed an effect of 50% or more. The effect is printed as a negative number. Some of the results follow.
# Biological target: human ether-à-go-go-related gene (hERG) potassium channel (human, UniProt Q12809)
# Assay: primary screen, population patch clamp on CHO cells stably expressing hERG
# Sequence of human ether-à-go-go-related gene (hERG) potassium channel (Q12809 whole entry, looked up): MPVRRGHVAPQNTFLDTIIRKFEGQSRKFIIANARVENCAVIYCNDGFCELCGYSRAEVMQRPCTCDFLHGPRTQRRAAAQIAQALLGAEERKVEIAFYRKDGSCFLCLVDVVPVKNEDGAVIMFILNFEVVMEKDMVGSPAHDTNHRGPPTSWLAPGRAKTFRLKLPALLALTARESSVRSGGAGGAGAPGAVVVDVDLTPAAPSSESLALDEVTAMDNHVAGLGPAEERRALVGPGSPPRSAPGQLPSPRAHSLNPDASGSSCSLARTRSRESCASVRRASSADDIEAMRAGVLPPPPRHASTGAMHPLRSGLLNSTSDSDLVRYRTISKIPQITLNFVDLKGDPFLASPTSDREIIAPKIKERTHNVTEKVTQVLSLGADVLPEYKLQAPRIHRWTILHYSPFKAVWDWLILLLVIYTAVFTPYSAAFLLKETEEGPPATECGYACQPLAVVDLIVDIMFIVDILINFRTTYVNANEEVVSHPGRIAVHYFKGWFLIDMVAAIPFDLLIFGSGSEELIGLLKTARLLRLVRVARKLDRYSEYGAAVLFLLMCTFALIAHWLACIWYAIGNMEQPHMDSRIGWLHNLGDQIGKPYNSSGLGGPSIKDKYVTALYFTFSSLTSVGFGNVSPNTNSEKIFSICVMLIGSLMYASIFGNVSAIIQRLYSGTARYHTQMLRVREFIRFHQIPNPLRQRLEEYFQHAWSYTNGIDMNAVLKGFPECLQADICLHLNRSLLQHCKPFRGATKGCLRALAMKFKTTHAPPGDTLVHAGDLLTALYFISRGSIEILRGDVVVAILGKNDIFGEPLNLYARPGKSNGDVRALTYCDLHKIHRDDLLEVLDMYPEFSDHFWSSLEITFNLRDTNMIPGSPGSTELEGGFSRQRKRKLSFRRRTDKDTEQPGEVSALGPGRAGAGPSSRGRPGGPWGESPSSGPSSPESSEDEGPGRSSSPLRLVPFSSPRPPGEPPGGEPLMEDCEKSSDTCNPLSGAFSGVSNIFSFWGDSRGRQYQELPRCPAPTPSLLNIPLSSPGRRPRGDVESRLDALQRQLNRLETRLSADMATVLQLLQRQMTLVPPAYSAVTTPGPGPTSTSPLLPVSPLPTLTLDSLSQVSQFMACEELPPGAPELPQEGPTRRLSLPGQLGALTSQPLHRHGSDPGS
row,Structure (SMILES),"hERG current change (%, negative = inhibition) at 1uM [%]"
1,COc1ccccc1NC(=O)c1ccc2c(c1)C(=O)N(Cc1ccco1)C2=O,14.1
2,CSc1nnc2c3ccccc3n(Cc3ccccc3)c2n1,19.2
3,Cc1ccc(C)c(NC(=O)COC(=O)c2ccc3c(c2)OCO3)c1,15.1
4,Cc1ccc(NC(=S)NCCN2CCOCC2)cc1C,-3.6
5,O=C(Nc1cc(=O)[nH]c2ncnn12)c1ccc(Cl)cc1Cl,-2.66
6,CC1CC(C)CN(C(=O)c2ccc(S(=O)(=O)N3CCCCC3)cc2)C1 (stereo not drawn),11.1
7,COc1ccccc1COc1ccc2c(C)c(CCC(=O)O)c(=O)oc2c1C,14
8,Cc1cc(NC(=O)CSCC(=O)N2CCN(c3cccc(C)c3C)CC2)no1,6.26
9,CCC(Oc1ccc(C)cc1)C(=O)Nc1ccc2c(c1)n(C)c(=O)n2C (stereo not drawn),12
10,N#CCCCn1c(=O)oc2ccccc21,10
11,CC1CC(C)CN(C(=O)CSc2nnc(CSc3ncccn3)n2C)C1 (stereo not drawn),14.1
12,CN(C)c1cccc2c(S(=O)(=O)N3CCOCC3)cccc12,1.32
13,CCCn1nc(NS(=O)(=O)c2cccc3nonc23)c2cc3cccc(C)c3nc21,9.2
14,CCc1sc(C(=O)Nc2ncccc2O)cc1C,3.73
15,O=C(CN1C(=O)S/C(=C/c2cccnc2)C1=O)N1CCOCC1,8.39
16,COc1ccc(CC(=O)N/N=C/c2cccnc2)cc1OC,10.4
17,COc1cc(NS(=O)(=O)c2ccc(N/C=C(\C=O)c3nc4ccccc4o3)cc2)nc(OC)n1,14.2
18,N#Cc1c(OCC(=O)c2ccccc2)nc2c(c1-c1ccco1)CCc1ccccc1-2,7.81
19,CCN(CC)C(=O)CSc1nc2cc3c(cc2c(=O)n1CCCC(=O)NCCc1ccc(OC)c(OC)c1)OCO3,0.696
20,CC(OC(=O)c1ccc2ncsc2c1)C(=O)N(C)C1CCCCC1 (stereo not drawn),9.47
21,O=C(NCc1ccc(F)cc1)C(c1ccco1)N(C(=O)c1csnn1)C1CC1 (stereo not drawn),9.29
22,COCCCN1C(=O)c2[nH]nc(-c3cc(C)cc(C)c3O)c2C1c1ccc(O)c(OC)c1 (stereo not drawn),6.9
23,O=C(NCc1ccccc1)c1ccc(S(=O)(=O)NCc2ccco2)cc1,8.84

row,Structure (SMILES),"hERG current change (%, negative = inhibition) at 1uM [%]"
1,N#Cc1c(NC(=O)CCn2cnc3ccccc3c2=O)oc(-c2ccccc2)c1-c1ccccc1,7
2,CCOC(=O)C1CCCc2c1[nH]c1c(C(=O)O)cccc21 (stereo not drawn),10.2
3,COC(=O)C(C)N(C#N)c1nc(C)nc(C)n1 (stereo not drawn),3.74
4,N#Cc1c(-c2ccccc2)nc(SCc2ccc(Cl)cc2)[nH]c1=O,16.5
5,Cc1cc(NC(=O)CSc2nnnn2-c2ccccc2F)no1,21.3
6,O=C(NC(=S)Nc1nc(-c2ccc(Br)cc2)cs1)c1cccnc1,12.5
7,Cc1ccc2[nH]c(=O)c(CN(C)C(=O)c3cccs3)cc2c1,16.2
8,O=C(O)c1ccccc1C(=O)N(Cc1ccccc1)Cc1ccccc1,13.7
9,NS(=O)(=O)c1ccc(C(=O)O)cc1,8.05
10,COc1ccc(NC(=S)NCc2ccco2)c(OC)c1,4.26
11,Cc1c(-c2ccccc2)nc(N)c(C#N)c1-c1cccnc1,5.2
12,O=c1cc(Nc2ccc3c(c2)OCCO3)[nH]c(=O)n1-c1ccc(Br)cc1,15.2
13,CCOC(=O)c1ccc(NC(=O)NCc2ccccn2)cc1,8.88
14,COc1cc(-c2nn3c(Cc4ccccc4)nnc3s2)cc(OC)c1OC,6.91
15,Br.CCCCCCCCn1c2c(c(=N)c3c1CCC3)CCCC2,-84.6
16,C#Cc1ccc([C@H]2C=C(C(=O)N3CCN(Cc4ccc5c(c4)OCO5)CC3)O[C@@H](OCC)[C@@H]2CCCO)cc1,6.87
17,COc1ccc2nc(Nc3ccccc3)sc2c1,24.2
18,Cc1ccc(S(=O)(=O)NCCc2ccncc2)cc1[N+](=O)[O-],21
19,CCN1C(=O)C(CC(=O)Nc2ccc(OC)cc2)N(Cc2cccs2)C1=S (stereo not drawn),1.47
20,O=C(Nc1ccc(O)cc1C(=O)O)c1ccc(NC(=O)c2ccco2)cc1,11.2
21,COc1ccc(C(=O)Nc2cc(C)nc3ccccc23)cc1OC,13.4
22,CCOC(=O)c1sc(=NC(=O)/C=C/c2cccs2)n(C)c1C,7.02
23,CCOc1ccc(C(=O)OCCN(C)C)cc1.Cl,8.1

row,Structure (SMILES),"hERG current change (%, negative = inhibition) at 1uM [%]"
1,Fc1ccccc1-c1nc2c(s1)CCc1onc(-c3ccc(Br)cc3)c1-2,10.1
2,Cc1cc(=O)n2c(n1)NC(Nc1cccc(C)c1C)=NC2c1ccc(F)cc1 (stereo not drawn),13.3
3,Cc1c(C)n(Cc2ccccc2)c2ccc(C(=O)O)cc12,11.3
4,O=C(COc1ncnc2ccccc12)NCCc1ccccc1,6.8
5,COc1ccc(Cc2nnc(SCC(=O)Nc3ccc(C)cc3)n(N)c2=O)cc1,9.78
6,O=C(Nc1cccc(Cl)c1)c1cccc(Oc2ccc([N+](=O)[O-])cc2Cl)c1,8.17
7,Cl.c1ccc2c(c1)oc1c(N3CCOCC3)ncnc12,6.59
8,NC(=O)NCc1ccccc1F,11.3
9,CCc1cc(-c2n[nH]c(C)c2-c2nc3ccccc3n2C)c(O)c(CN2CCN(C)CC2)c1O,-10.1
10,CC(C)C[C@H]1CNC(=O)C(=O)N1C[C@H](C)NC(=O)Cc1ccccc1,7.44
11,CC1C(=O)N(c2ccc(S(=O)(=O)N(C)C)cc2)C1(/C=C/c1ccccc1)C(=O)NC1CCCC1 (stereo not drawn),20.3
12,CCN(CC)CCCNC(=O)Cn1nc(-c2ccccc2)ccc1=O,-22
13,CCOc1cc(CNc2cccc3[nH]c(C)nc23)ccc1OC.Cl,17.5
14,O=C(C1CCCN1S(=O)(=O)c1cccc2cccnc12)N1CCN(c2ccccc2)CC1 (stereo not drawn),-10.5
15,COC(=O)c1cc2ccccc2oc1=O,9.87
16,COc1ccc(/C=N/NC(=O)CCn2c3ccccc3c3ccccc32)cc1OC,1.17
17,Cc1nnc(SCCCOc2ccccc2)nc1C,6.8
18,COc1ccc(S(=O)(=O)N2CCCCCC2)cc1C(=O)N(C)Cc1ccc(C(C)(C)C)cc1,11.8
19,Cc1cc(O)c(C(C)C)cc1NC(=O)c1ccccc1Cl,-0.168
20,Fc1ccccc1NC(=S)N1CCN(Cc2ccccc2)CC1,7.44
21,C=CC(O)(C#CCN(CC)CC)c1ccccc1 (stereo not drawn),5.23
22,CCC(C)(C)C1CCC(=NNC(=O)c2ccoc2C)CC1 (stereo not drawn),9.14
23,COC(=O)N1C(=O)[C@](c2ccc(Cl)cc2)(C(C)C)N1C(=O)OC,10.8

row,Structure (SMILES),"hERG current change (%, negative = inhibition) at 1uM [%]"
1,CC(NCc1cccn1C)c1ccccc1.Cl (stereo not drawn),-5.71
2,Cc1ccc(NC(=S)N2CCN(S(C)(=O)=O)CC2)cc1C,8.13
3,CC1CCc2sc(C(=O)NCc3ccc(F)cc3)cc2C1 (stereo not drawn),-5.45
4,O=C(Nc1ccc2c(c1)OCCO2)C(=O)NC1CC1,13.9
5,C/C(=N/NC(=O)c1cc(C(C)C)[nH]n1)c1cccs1,11.3
6,CCOC(=O)[C@@H]1[C@H]2COc3ccccc3[C@@H]2N2C(=O)N(c3ccc(C(F)(F)F)cc3)C(=O)[C@]12C,-0.838
7,CSCCCNC(=S)N(C)CC(=O)Nc1ccc(C)cc1,16
8,CCCCn1c(N)c(N(CCC(C)C)C(=O)CC2CCCCC2)c(=O)[nH]c1=O,10
9,COc1cc(-c2ccccc2)nc2ccccc12,3.75
10,N#CC1=C2SCN(c3ccccc3)CN2C(=O)CC1c1ccccc1Cl (stereo not drawn),10.6
11,COc1cc([N+](=O)[O-])ccc1NC(=O)CN1CCN(C(=O)c2ccco2)CC1,-47.5
12,Cc1ccnc(NC(=O)CNC(=O)c2ccc3ccccc3c2)c1,9.32
13,Cc1ccccc1NC(=O)Cc1nc(COC(=O)c2cc(Br)ccc2O)cs1,9.06
14,O=C1CN(c2nc(-c3cccnc3)nc3scc(-c4ccccc4)c23)CCN1,1.65
15,CC(C)OC(=O)c1cc(NC(=S)Nc2ccc([N+](=O)[O-])cc2)cc(C(=O)OC(C)C)c1,13.3
16,COc1ccc(NC(=O)c2cc(S(=O)(=O)N3CCOCC3)ccc2N2CCOCC2)cc1,3.97
17,C=CCn1c(C)cc(C(=O)COC(=O)C2CC(=O)N(CCc3ccc(OC)c(OC)c3)C2)c1C (stereo not drawn),7.4
18,CC1CC(C)CN(C(=O)CSc2nnc(-c3ccco3)o2)C1 (stereo not drawn),4.69
19,O=C(NCc1ccc2c(c1)OCO2)c1cc(-c2cc(Cl)ccc2O)n[nH]1,13.5
20,Cc1ccc(C(=O)NCc2ccco2)c(C)c1,17.4
21,O=C(COc1ccccc1)NCc1n[nH]c(=S)n1-c1ccccc1,18.5
